One molecule from US11541126B1, “Anti-ASGR1 antibody TLR8 agonist comprising conjugates and uses thereof” (Silverback Therapeutics, Inc., priority 2020, dated 2023) can be followed below.

In experiment [1] the target is T1, human ASGR1 extracellular domain (ECD) (Homo sapiens, UniProt P07306).
T1 sequence (P07306 62-291 limits assumed): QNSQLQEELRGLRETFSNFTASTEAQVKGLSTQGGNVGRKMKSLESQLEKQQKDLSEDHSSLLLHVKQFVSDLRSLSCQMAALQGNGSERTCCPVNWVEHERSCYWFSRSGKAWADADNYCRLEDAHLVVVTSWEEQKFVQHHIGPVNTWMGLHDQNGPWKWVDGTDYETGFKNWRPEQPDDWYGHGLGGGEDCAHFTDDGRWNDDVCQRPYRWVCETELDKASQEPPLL
Kind of experiment: Effect of calcium on binding to human ASGR1 ECD (OCTET). Also noted: key to Ca^2+ Sensitivity during: Association / Ca^2+ Sensitivity during: Dissociation / Ca^2+ Sensitivity: N = No; Y = Yes. The method, then:
The ability of anti-human ASGR1 antibodies of this disclosure to bind to human ASGR1 in the presence or absence of calcium in binding buffer was examined. Briefly, ASGR1 antibodies were bound to immobilized human ASGR1 extracellular domain (ECD) at saturating levels and subsequently dissociated under three different conditions as follows: (a) binding and dissociation with buffer containing calcium (PBS+1% BSA+0.2% Tween20+0.9 mM CaCl2), pH 7.4); (b) binding with buffer containing calcium and dissociation with buffer lacking calcium; and (c) binding and dissociation with buffer lacking calcium. Analysis of ASGR1 antibody binding to human ASGR1 ECD was performed using the OCTET® Red 96 instrument and analyzed using the OCTET®Data Analysis Software 9.0 (ForteBio). His-tagged human ASGR1 ECD was immobilized to OCTET® Penta-His biosensors and ASGR1 antibodies were subjected to avidity binding under the conditions described above. Association with the ASGR1 ECD was measured by the rate of and increase in magnitude of signal response at a given antibody concentration. Dissociation from the ASGR1 ECD was measured as the rate of loss in signal upon removal of the antibody and further incubation with or without Ca^2+. […] Also tested were humanized antibodies hzH8K-1 and hzL4L-7.
Further analysis of the antibodies of this disclosure was to determine whether the presence of calcium was needed for binding (i.e., during association) of the antibodies to human ASGR1 ECD. […]

Experiment [2] has as its target T2, rat CLEC10A ECD (Rattus norvegicus, UniProt P49301).
T2 construct: His-tagged rat CLEC10A ECD (R&D Systems) was immobilized to OCTET® Penta-His biosensors; purchased R&D Systems
T2 sequence (P49301 59-306 limits assumed): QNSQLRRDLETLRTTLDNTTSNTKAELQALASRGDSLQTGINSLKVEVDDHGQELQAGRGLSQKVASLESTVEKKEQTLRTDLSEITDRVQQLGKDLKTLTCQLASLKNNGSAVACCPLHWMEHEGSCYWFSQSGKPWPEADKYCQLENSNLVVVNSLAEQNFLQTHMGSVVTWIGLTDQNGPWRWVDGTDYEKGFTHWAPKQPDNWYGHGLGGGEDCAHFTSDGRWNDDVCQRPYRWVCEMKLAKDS
The experiment is described as follows: OCTET equilibrium dissociation constant to monomeric rat CLEC10A ECD. It counts as binding. As to conditions: in words. An excerpt:
Further analysis of chK2E and ASGR1 mAb-B were investigated to determine equilibrium dissociation constants to rat CLEC10A ECD by OCTET® Red 96 instrument (ForteBio). Antibodies chK2E and ASGR1 mAb-B were minimally biotinylated prior to capture to streptavidin (SA) biosensors using EZ-LINK™ NHS-PEG4-Biotin, NO-WEIGH™ Format (Thermo Scientific) at a calculated ratio of three biotins to one mAb. Biotinylated proteins were purified by ZEBA™ spin desalting columns (Thermo Scientific) to remove free biotin. The interacting monomeric rat CLEC10 ECD (R&D Systems) was used at 5-6 concentrations of a 3-fold concentration series to determine equilibrium constants in kinetics buffer using the following steps: (1) hydration of SA biosensors in kinetics buffer (10 min); (2) baseline acquisition (30 s); (3) immobilization biotinylated chK2E or ASGR1 mAb-B at concentration of 5 µg/mL (180 s or until all sensors reached a 1 nm shift); (4) second baseline acquisition (60 s); (5) association of rat CLEC10A ECD starting at 200 nM with 3× dilutions (300 s); (7) dissociation in kinetics buffer (600 s).
The data were analyzed using OCTET® Data Analysis Software 9.0 (ForteBio) and fit to the bivalent binding model. The equilibrium dissociation constants (KD) were calculated by the ratio of koff to kon.

Experiment [3] concerns the target T2, rat CLEC10A ECD. The experiment is described as follows: OCTET avidity binding to immobilized rat CLEC10A ECD. The method, then: Analysis of binding to the rat CLEC10A ECD was performed using the OCTET® Red 96 instrument (ForteBio). His-tagged rat CLEC10A ECD (R&D Systems) was immobilized to OCTET® Penta-His biosensors and subjected to avidity binding of test antibodies in kinetics buffer (PBS+1% BSA+0.2% Tween20+0.9 mM CaCl2) at pH 7.4) in the following steps: (1) hydration of Penta-His biosensors in kinetics buffer (10 min); (2) regeneration and neutralization of Penta-His biosensor in 10 mM glycine-HCl (pH 1.5) and kinetics buffer, respectively in triplicate; (3) baseline acquisition (30 s); (4) immobilization of rat CLEC10A ECD to Penta-His biosensors at a concentration of 10 μg/mL (180 s); (5) second baseline acquisition (60 s); (6) association of test antibody at 25 μg/mL (60 s); (7) dissociation in kinetics buffer (60 s).
The interactions of test mAbs with rat CLEC10A ECD was analyzed using the OCTET® Data Analysis Software 9.0 (ForteBio).

B1: chK2E: chimeric antibody "chK2E (heavy chain SEQ ID NO:151; light chain SEQ ID NO:207)" (antibody)
heavy: QVQLQQSAAELARPGASVKMSCKASGYTFTSYTMHWVKQRPGQGLEWIGYISPSSGYTEYNQKFKDKTTLTADKSSSTAYMQLSSLTSEDSAVYYCARKFDYWGQGTTLTVSS[human IgG1 constant region cut from this listing]
light: DIKMTQSPSSMYASLGERVTITCKASQDINSYLSWFQQKPGKSPKTLIYRANRLVDGVPSRFSGSGSGQDFSLTISSLEYEDMGIYYCLQYDEFPFTFGSGTKLEIKRTVAAPSVFIFPPSDEQLKSGTASVVCLLNNFYPREAKVQWKVDNALQSGNSQESVTEQDSKDSTYSLSSTLTLSKADYEKHKVYACEVTHQGLSSPVTKSFNRGEC
modifications: Synthetic sequence chK2E Heavy Chain; Synthetic sequence chK2E Light Chain
As to B1, in experiment [1], the “Ca^2+ Sensitivity” value was “Y”, the “Ca^2+ Sensitivity during: Association” value was “Y” and the “Ca^2+ Sensitivity during: Dissociation” value is on record as “N”. For the same molecule, in experiment [1] (in words), the “Sensitivity to calcium (difference in binding signal after dissociation >±10%)” value was “lacking sensitivity to calcium”. Also, the “Off-target binding to rat CLEC10A ECD” value with rat CLEC10A ECD [2] was “not observed to bind”. The “Binding signal to rat CLEC10A ECD” value with rat CLEC10A ECD [3] (in words) is “minor signal above background”. In addition, the “Response, binding to rat CLEC10A ECD” value in the experiment with rat CLEC10A ECD [3] (test antibody at 25 μg/mL) was found to be 0.0984 nm.
